In PubChem BioAssay (Tox21):
Values joined by “and” are separate entries in the source; they are usually repeats but may differ in a detail not shown here. Identical values can stand only once. Inconclusive means that the source gave no clear call. Such entries were picked first, then a sample of the others. For part of these data: Potencies beside an inconclusive call are fits to weak or partial responses and may not hold up. Where a structure was tested more than once in an assay, its records may differ in their call. Active and inactive are the calls of the source. Unless noted, the call rests on the fitted dose curve; in most records, active means well fitted curve in the direction sought with a large enough effect in the repeat runs; inconclusive means weak or mixed curves; inactive means no such curve, though single readings can be large; an effect the other way counts as inactive or inconclusive. Peptide text beside a SMILES is read from it.

Columns and labels:
[1] = qHTS assay to identify small molecule agonists of H2AX (AID 1224845; active means well fitted activation curve with a large enough effect in the signal ratio in the repeat runs, not every such curve was filed as active; inconclusive means weak or mixed curves; the % refers to the signal ratio); conditions: CHO-K1 phospho-H2AX Ser139 HTRF, 3 h; series mostly up to 154 µM
In short: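 Wild-type CHO-K1 cells plated overnight, then exposed 3 hr at 37C to compounds at 15 concentrations (0.76% DMSO). Lysed, then HTRF anti-pH2AX(S139)-cryptate/anti-H2AX-d2 detection after 24 hr at room temperature; emissions 665 and 620 nm.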

[2] = qHTS assay to identify small molecule antagonists of the estrogen related receptor (ERR) signaling pathway from Tox21 library (AID 1224848); further: nearly all actives have a fitted effect of over 50% in size
In short: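 First, 2,000 ERR cells per well were plated and held 6 h at 37 C/5% CO2. Next, compounds in DMSO were pinned in and left 18 h at 37 C. Finally, ONE-Glo was added and luminescence read after 30 min at room temperature.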

[3] = A CellTox Green Cytotoxicity Assay to monitor cytotoxicity in HEK293 cells - 24 hour (AID 1224875); further: nearly all actives have a fitted effect of over 45% in size
In short: (§1)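 Dead-cell fluorescence measured kinetically: asymmetric cyanine dye, HEK293, 600 cells/well, 5 h settle, 23 nL cpd/DMSO, 37 C, reads 0–40 h every 8 h.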

[4] = qHTS RealTime-Glo MT Cell Viability Assay in HEK293 cells - 0 hour (AID 1224880); further: nearly all actives have a fitted effect of over 45% in size
In short: (§2)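 600 HEK293 cells per well, dispensed already mixed with RealTime-Glo MT reagents. Compound dosing came 5 h later. The same wells were read for luminescence at 0, 8, 16, 24, 32 and 40 h of exposure at 37 C.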

[5] = qHTS assay to identify small molecule agonists of H2AX - cell viability counter screen (AID 1224847; calls by dose curve; further: nearly all actives have a fitted effect of over 30% in size)
In short: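 After overnight plating of 1000 CHO-K1 cells per well, a 15-concentration compound series was applied for 3 hr at 37C. Luminescence from CellTiter-Glo, read following 30 min at room temperature, reflected cell viability.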

[6] = qHTS RealTime-Glo MT Cell Viability Assay in HepG2 cells - 24 hour (AID 1224867); further: nearly all actives have a fitted effect of over 50% in size
In short: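 Cells + NanoLuc/prosubstrate dispensed (600 cells/well) → 5 h at 37 C/5% CO2 → compounds in DMSO transferred → 40 h incubation at 37 C, luminescence read at 0, 8, 16, 24, 32, 40 h.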

[7] = qHTS RealTime-Glo MT Cell Viability Assay in HEK293 cells - 32 hour (AID 1224868); further: nearly all actives have a fitted effect of over 50% in size
In short: (§3)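 Tox21 10K qHTS, HEK293, 600 cells/well, RealTime-Glo reagent co-dispensed with cells; 5 h preincubation, compound by pintool, 37 C, luminescence at 0–40 h.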

[8] = qHTS RealTime-Glo MT Cell Viability Assay in HEK293 cells - 16 hour (AID 1224872); further: nearly all actives have a fitted effect of over 50% in size
In short: as §3

[9] = qHTS RealTime-Glo MT Cell Viability Assay in HepG2 cells - 8 hour (AID 1224873); further: nearly all actives have a fitted effect of over 55% in size
In short: (§4)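 HepG2 cells mixed with RealTime-Glo MT reagents (NanoLuc plus cell-permeant prosubstrate) were seeded at 600 cells/well, incubated 5 h at 37 C/5% CO2, then pinned with compounds in DMSO; nonlytic luminescence tracked viability during 40 h treatment.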

[10] = qHTS RealTime-Glo MT Cell Viability Assay in HEK293 cells - 40 hour (AID 1224874); conditions: RealTime-Glo luminescence; max response: stronger effect = lower value; further: nearly all actives have a fitted effect of over 50% in size
In short: as §2

[11] = qHTS RealTime-Glo MT Cell Viability Assay in HepG2 cells - 40 hour (AID 1224870); further: nearly all actives have a fitted effect of over 50% in size
In short: as §4

[12] = A CellTox Green Cytotoxicity Assay to monitor cytotoxicity in HEK293 cells - 40 hour (AID 1224871); further: nearly all actives have a fitted effect of over 45% in size
In short: as §1

[13] = A CellTox Green Cytotoxicity Assay to monitor cytotoxicity in HepG2 cells - 16 hour (AID 1224876); further: nearly all actives have a fitted effect of over 45% in size
In short: (§5)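 First, HepG2 cells (600/well) mixed with reagent were plated; second, after 5 h at 37 C they received compounds via pintool; third, fluorescence was measured at 0 h through 40 h at 8 h intervals.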

[14] = A CellTox Green Cytotoxicity Assay to monitor cytotoxicity in HepG2 cells - 24 hour (AID 1224878); further: nearly all actives have a fitted effect of over 45% in size
In short: as §5

[15] = A CellTox Green Cytotoxicity Assay to monitor cytotoxicity in HepG2 cells - 40 hour (AID 1224879); further: nearly all actives have a fitted effect of over 40% in size
In short: as §5
Potency means the concentration at half of the fitted maximal effect; tags describe the fitted curve by direction and shape or compound fluorescence and quenching.

In the case of `CC(C)CC(=O)CC(C)C`, the Potency [1] is reported as inconclusive: 101 µM [rising, partial curve, poor fit] and the Potency [2] is reported as “inactive”.

In the case of `CCCCCCCCCCOCC(O)CN` (stereo not given), the Potency [1] is reported as inconclusive: 61.9 µM [activator, single point], the Potency [2] is reported as inconclusive: 33.5 µM [inhibitor, single point] and the Potency [3] is reported as active: 23.9 µM. For the same compound, the Potency [4] was inconclusive: 23.9 µM [rising, partial curve].

In the case of `COC(=O)[C@H](Cc1ccccc1)NC(=O)[C@@H](N)CC(=O)O` (H-Asp-Phe-OMe), the Potency [1] is reported as “inactive”, the Potency [5] is reported as “inactive” and the Potency [3] is reported as “inactive”.

With `Clc1ccccc1C(c1ccccc1)(c1ccccc1)n1ccnc1` the Potency [1] was inconclusive: 45 µM [fluorescent] and inconclusive: 7.8 µM [fluorescent, full curve], the Potency [6] was active: 21.9 µM and the Potency [7] was active: 21.9 µM and active: 6.74 µM. The Potency [8] was inconclusive: 8.49 µM [cytotoxic, partial curve], the Potency [9] was active: 27.5 µM and the Potency [4] was inconclusive: 61.6 µM [falling, partial curve, poor fit].

In the case of `O=C(N[C@H](CO)[C@H](O)c1ccc([N+](=O)[O-])cc1)C(Cl)Cl`, the Potency [1] is reported as “inactive”, the Potency [7] is reported as inconclusive: 30.9 µM [rising, partial curve, poor fit] and the Potency [8] is reported as inconclusive: 30.9 µM [rising, partial curve, poor fit]. The Potency [10] was inconclusive: 30.9 µM [rising, single point] and the Potency [4] was inconclusive: 54.9 µM [rising, partial curve, poor fit].

In the case of `CC(C)(c1ccc(O)cc1)c1ccc(O)cc1`, the Potency [1] is reported as inconclusive: 51.4 µM [fluorescent, single point], the Potency [2] is reported as inconclusive: 31.2 µM [inhibitor] and the Potency [7] is reported as inconclusive: 48.4 µM [cytotoxic, partial curve] and inconclusive: 14.1 µM [cytotoxic, full curve]. For the same compound, the Potency [11] was inconclusive: 43.1 µM [rising, partial curve, poor fit], the Potency [12] was active: 17.7 µM and the Potency [8] was inconclusive: 54.3 µM [cytotoxic, single point] and inconclusive: 44.4 µM [cytotoxic]. For the same compound, the Potency [10] was inconclusive: 48.4 µM [cytotoxic, partial curve], the Potency [13] was inconclusive: 55.9 µM [activator, single point] and the Potency [14] was inconclusive: 55.9 µM [activator]. For the same compound, the Potency [15] was inconclusive: 49.9 µM [activator, single point].

With `Nc1ccc2c(c1)C(=O)c1ccccc1C2=O` the Potency [1] was inconclusive: 71.3 µM [falling, partial curve] and the Potency [12] was active: 30.3 µM and inactive.

In the case of `O=C(CC(C(=O)OC1CCCCC1)S(=O)(=O)O)OC1CCCCC1` (stereo not given), the Potency [1] is reported as inconclusive: 127 µM [rising, partial curve, poor fit] and the Potency [12] is reported as inconclusive: 54.2 µM [activator, single point].

With `Oc1c(Cl)cc(Cl)c2cccnc12` the Potency [1] was active: 39.1 µM, the Potency [10] was active: 8.49 µM and the Potency [14] was inconclusive: 10.7 µM [activator, partial curve]. For the same compound, the Potency [15] was active: 8.49 µM.

For `CC(C)(C)c1ccc(C(O)CCCN2CCC(C(O)(c3ccccc3)c3ccccc3)CC2)cc1` (stereo not given), the Potency [1] was inconclusive: 22 µM [activator], the Potency [12] was active: 7.56 µM and the Potency [8] was active: 6.74 µM. For the same compound, the Potency [3] was active: 9.52 µM and the Potency [4] was inconclusive: 23.9 µM [rising, partial curve, poor fit].

With `C[C@H]1O[C@@H](O[C@H]2CC[C@@]3(C)[C@H](CC[C@@H]4[C@@H]3C[C@@H](O)[C@]3(C)[C@@H](C5=CC(=O)OC5)CC[C@]43O)C2)C[C@H](O)[C@@H]1O[C@H]1C[C@H](O)[C@H](O[C@H]2C[C@H](O)[C@H](O[C@@H]3O[C@H](CO)[C@@H](O)[C@H](O)[C@H]3O)[C@@H](C)O2)[C@@H](C)O1` the Potency [1] was “inactive”, the Potency [8] was inconclusive: 0.338 µM [cytotoxic, full curve] and the Potency [10] was active: 0.239 µM.

For `O=C(O[C@@H]1Cc2c(O)cc(O)cc2O[C@@H]1c1cc(O)c(O)c(O)c1)c1cc(O)c(O)c(O)c1`, the Potency [1] was inconclusive: 14.3 µM [cytotoxic, full curve] and inconclusive: 34.5 µM [cytotoxic, partial curve], the Potency [6] was inconclusive: 43.8 µM [falling, partial curve] and inconclusive: 23.7 µM [falling, partial curve] and the Potency [7] was inconclusive: 55.1 µM [cytotoxic, partial curve, poor fit]. The Potency [8] was inconclusive: 39 µM [cytotoxic, partial curve, poor fit] and active: 11.9 µM, the Potency [9] was inconclusive: 33.4 µM [falling, partial curve] and the Potency [10] was inconclusive: 55.1 µM [cytotoxic, partial curve, poor fit]. For the same compound, the Potency [15] was inconclusive: 4.72 µM [activator, partial curve, poor fit].

In the case of `CN1CCN(c2ccccc2/C=C2\SCCN(c3ccc(Cl)c(Cl)c3)C2=O)CC1`, the Potency [1] is reported as inconclusive: 127 µM [single point], the Potency [5] is reported as active: 50.5 µM and the Potency [3] is reported as active: 49 µM.

With `C=C1C[C@H]2[C@@H]3C=C(C)C4=CC(=O)CC[C@]4(C)[C@H]3CC[C@]2(C)[C@@]1(OC(C)=O)C(C)=O` the Potency [1] was “inactive”, the Potency [7] was inconclusive: 14.1 µM [cytotoxic, partial curve] and inconclusive: 21.3 µM [cytotoxic, partial curve] and the Potency [8] was inconclusive: 15.8 µM [cytotoxic, partial curve, poor fit] and inconclusive: 19 µM [cytotoxic, partial curve, poor fit]. For the same compound, the Potency [10] was inconclusive: 14.1 µM [cytotoxic, partial curve] and inconclusive: 19 µM [cytotoxic, partial curve].
